Assay [1] deals with epidermal growth factor receptor (EGFR) (human) (UniProt P00533). Put plainly: flow cytometry on cells carrying the target, DVD-Ig at 2 ug/mL, PE goat anti-human IgG Fc detection. For orientation: A flow cytometer gives signals particle by particle.
Assay [2] has the same target. As to the kind of experiment: flow cytometry on cells carrying the target; cell-bound DVD-Ig detected through fluorescent methotrexate held by its C-terminal MTX domain, so the signal needs both EGFR and MTX binding.

B1: DVD1211 (bispecific antibody, human IgG1, kappa)
heavy: QVQLQESGPGLVKPSQTLSLTCTVSGYSISSDFAWNWIRQPPGKGLEWMGYISYSGNTRYQPSLKSRITISRDTSKNQFFLKLNSVTAADTATYYCVTAGRGFPYWGQGTLVTVSSASTKGPDVQLQESGPGLVKPSQSLSLTCTVTGFSITSPYAWNWIRQFPGNTLEWMGYISYRGSTTHHPSLKSRISITRDTSKNQFFLQLNSVTTEDTATYFCSSYGNYGAYSGQGTLVTVSA[human IgG1 constant region not shown]
light: DIQMTQSPSSMSVSVGDRVTITCHSSQDINSNIGWLQQKPGKSFKGLIYHGTNLDDGVPSRFSGSGSGTDYTLTISSLQPEDFATYYCVQYAQFPWTFGGGTKLEIKRTVAAPDVLLTQIPLSLPVSLGDQASISCRSSQSIVHSNGNTYLEWYLQKPGQSPKLLIYKVSTRFSGVPDRFSGSGSGTDFTLKISRVEAEDLGVYYCFQGSHVPLTFGAGTQLELKRTVAAPSVFIFPPSDEQLKSGTASVVCLLNNFYPREAKVQWKVDNALQSGNSQESVTEQDSKDSTYSLSSTLTLSKADYEKHKVYACEVTHQGLSSPVTKSFNRGEC
As to B1, the FACS Geometric Mean N-terminal in assay [1] was 739. The molecule also registered an FACS Geometric Mean (methotrexate localization) in assay [2] of 12.2.

The record behind these values is patent publication US20110091372A1.
